For this assay, the system named is P388 leukemia ip, CD2F1 mice, survival T/C. Briefly: NCI In Vivo Anticancer Drug Screen. Data for tumor model P388 Leukemia (intraperitoneal) in CD2F1 (CDF1) mice. Conditions: endpoint: median survival time, higher = longer survival.
Setting [1] is: dose: 25.0 mg/kg/injection, schedule: Q01DX009 (ip), vehicle: saline.

Each structure is given as a SMILES string. Toxic doses and inconclusive results are not listed. A number of entries come with more than one value. They are shown here; other results are not. An entry can have further records. The values listed for one entry are repeated measurements (runs, samples, wells, individuals or studies). Marks in square brackets tell the records apart. The letters are not those of the source and start again with each entry.

In the case of `CCNCCNc1ccc(NCCNCC)c2c1C(=O)c1ccccc1C2=O`, where the note is “dose: 25.0 mg/kg/injection, schedule: Q01DX009 (ip), vehicle: other”, the T/C is 102 % of control and 162 % of control. `CNC(=O)OCc1c(COC(=O)NC)c(-c2ccc(F)cc2)n(C)c1C`: the T/C (dose: 25.0 mg/kg/injection, schedule: Q01DX009 (ip), vehicle: distilled water + Tween-80) was 106 % of control and 150 % of control. For the molecule `COc1cc2c(c(OC)c1OC)-c1cc3c(cc1CC1COC(=O)N1C2)OCO3` (centres undefined), the T/C (dose: 120.0 mg/kg/injection, schedule: Q01DX005 (ip), vehicle: Klucel (hydroxypropylcellulose) (HPC)) is on record as 95 % of control, 97 % of control, 164 % of control. For the molecule `CCN(CC)CCn1[nH]c2c3ccc(=O)cc3sc3c(NCCN)ccc1c32`, the T/C (dose: 1.56 mg/kg/injection, schedule: Q01DX005 (ip), vehicle: water) is recorded as 114 % of control, 175 % of control, 194 % of control.

Consider `COc1ccc(-n2c(C)c(COC(C)=O)c(COC(C)=O)c2C)cc1`, for which the T/C under setting [1] was 95 % of control and 154 % of control.

Turning to `O=C1N[C@@H]2C(=C[C@H](O)[C@@H](O)[C@H]2O)c2cc3c(c(O)c21)OCO3`, the T/C (dose: 2.5 mg/kg/injection, schedule: Q01DX009 (ip), vehicle: saline with Tween-80) is 93 % of control and 162 % of control. With `C[n+]1cc2cc3c(cc2c2ccccc21)OCO3`, where the note is “dose: 25.0 mg/kg/injection, schedule: Q01DX009 (ip), vehicle: water”, the T/C was 100 % of control and 151 % of control. Take `CCCCN(CCCC)P(=O)(N1CC1)N1CC1`: the T/C under setting [1] was 91 % of control and 168 % of control. In the case of `CCC[CH2][Sn]([CH2]CCC)([S]C#N)[S]C#N`, the T/C (dose: 3.0 mg/kg/injection, schedule: Q01DX009 (ip), vehicle: saline with Tween-80) was 96 % of control and 154 % of control.

Regarding `CCNC(=NC)c1ccc(NC(=O)c2ccc(C(=O)Nc3ccc(C(=NC)NCC)cc3)cc2)cc1`, the T/C (dose: 6.0 mg/kg/injection, schedule: Q01DX009 (ip), vehicle: saline with Tween-80) was 113 % of control and 181 % of control. For the molecule `COc1cccc2c1C(=O)c1c(O)c3c(c(O)c1C2=O)C[C@@](O)(/C(C)=N/NC(=O)c1cccc([N+](=O)[O-])c1)C[C@@H]3OC1CC(N)C(O)C(C)O1` (some centres undefined), the T/C reads like this: (dose: 128.0 mg/kg/injection, schedule: Q04DX003 (ip), vehicle: saline) 115 % of control and 152 % of control; (dose: 256.0 mg/kg/injection, schedule: Q04DX003 (ip), vehicle: saline) 108 % of control and 179 % of control. For `CN(Cc1ccccc1)N=NCc1ccccc1`, the T/C (dose: 100.0 mg/kg/injection, schedule: Q01DX005 (ip), vehicle: saline with Tween-80) was 90 % of control and 151 % of control. For `O=C(Nc1ccc([N+](=O)[O-])cc1)Nc1nccs1`, under “dose: 100.0 mg/kg/injection, schedule: Q01DX009 (ip), vehicle: distilled water + Tween-80”, the T/C is 86 % of control and 151 % of control.

Take `CCCCCCCCCCCCCCCCCCCCCC(=O)Nc1ccn(C2OC(CO)C(O)C2O)c(=O)n1` (centres undefined): the T/C (dose: 50.0 mg/kg/injection, schedule: Q01DX009 (ip), vehicle: saline with Tween-80) was 90 % of control and 195 % of control. Take `C[n+]1ccc(NC(=O)c2ccc(NC(=O)c3cccc(C(=O)Nc4ccc(C(=O)Nc5cc[n+](C)cc5)cc4)c3)cc2)cc1`: where the note is “dose: 100.0 mg/kg/injection, schedule: Q04DX003 (ip), vehicle: saline with Tween-80”, the T/C is given as 123 % of control, 190 % of control, 200 % of control. Turning to `Nc1ccn([C@@H]2C=C(CO)[C@@H](O)[C@H]2O)c(=O)n1`, the T/C (dose: 1.5 mg/kg/injection, schedule: Q01DX009 (ip), vehicle: saline) is 113 % of control and 169 % of control. As to `COc1cc2c(c(OC)c1OC)-c1ccc(SC)c(=O)cc1[C@@H](NC(=O)CO)CC2`, the T/C (dose: 0.4 mg/kg/injection, schedule: Q01DX009 (ip), vehicle: other) is 99 % of control and 172 % of control.

Consider `CCC1(O)CC(OC2CC(N(C)C)C(OC3CC4OC5CC(=O)C(C)OC5OC4C(C)O3)C(C)O2)c2c(cc3c(c2O)C(=O)c2c(O)ccc(O)c2C3=O)C1C(=O)OC` (centres undefined), for which the T/C (dose: 4.0 mg/kg/injection, schedule: Q04DX003 (ip), vehicle: saline with Tween-80) was 172 % of control [sample A] and 90 % of control [sample B].

Values taken from PubChem BioAssay AID330 (DTP/NCI, 2004).
